Structures can show the parent of a compound that is named as a salt. Some of these results come from one statement about several compounds together. At least one compound was matched to its structure with a doubt left.
Each molecule was assayed against KPC-2 (Klebsiella pneumoniae, UniProt Q9F663). Conditions: KPC-2, 100 μM nitrocefin, PBS pH 7.4, 25° C. (Table IV).
Chain of KPC-2 (Q9F663 25-293 limits assumed): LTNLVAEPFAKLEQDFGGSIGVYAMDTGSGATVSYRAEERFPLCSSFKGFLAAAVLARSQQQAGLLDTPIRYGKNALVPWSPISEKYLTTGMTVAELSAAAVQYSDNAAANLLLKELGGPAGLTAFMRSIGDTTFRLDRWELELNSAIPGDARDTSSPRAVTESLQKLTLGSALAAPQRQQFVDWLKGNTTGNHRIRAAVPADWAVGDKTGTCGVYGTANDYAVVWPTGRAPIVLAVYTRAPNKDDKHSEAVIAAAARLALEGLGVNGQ
Assay type: biochemical, K. pneumoniae
`NCCc1nnc([C@@H]2CC[C@@H]3CN2C(=O)N3OS(=O)(=O)O)o1` [Compound 703, (2S,5R)-2-(5-(2-aminoethyl)-1,3,4-oxadiazol-2-yl)-7-oxo-1,6-diazabicyclo[3.2.1]octan-6-yl hydrogen sulfate] was tested, and the “binding affinity (kinact/K) for the β-lactamase enzyme” value (“binding affinity (kinact/K)” below) was 100-999 mM^1 s^−1.
With `O=C1N2C[C@@H](CC[C@H]2c2nnc(N3CCNCC3)o2)N1OS(=O)(=O)O` [Compound 713, (2S,5R)-7-oxo-2-(5-(piperazin-1-yl)-1,3,4-oxadiazol-2-yl)-1,6-diazabicyclo[3.2.1]octan-6-yl hydrogen sulfate] the “binding affinity (kinact/K)” value was 100-999 mM^1 s^−1.
With `NCC(O)c1nnc([C@@H]2CC[C@@H]3CN2C(=O)N3OS(=O)(=O)O)o1` (stereo partly drawn) [Compound 715, (2S,5R)-2-(5-(2-amino-1-hydroxyethyl)-1,3,4-oxadiazol-2-yl)-7-oxo-1,6-diazabicyclo[3.2.1]octan-6-yl hydrogen sulfate] the “binding affinity (kinact/K)” value was 1-99 mM^1 s^−1.
For `NCCNCCc1nnc([C@@H]2CC[C@@H]3CN2C(=O)N3OS(=O)(=O)O)o1` [Compound 716, (2S,5R)-2-(5-(2-((2-aminoethyl)amino)ethyl)-1,3,4-oxadiazol-2-yl)-7-oxo-1,6-diazabicyclo[3.2.1]octan-6-yl hydrogen sulfate], the “binding affinity (kinact/K)” value was 1-99 mM^1 s^−1.
For `NCC(N)c1nnc([C@@H]2CC[C@@H]3CN2C(=O)N3OS(=O)(=O)O)o1` (stereo partly drawn) [Compound 717, (2S,5R)-2-(5-(1,2-diaminoethyl)-1,3,4-oxadiazol-2-yl)-7-oxo-1,6-diazabicyclo[3.2.1]octan-6-yl hydrogen sulfate], the “binding affinity (kinact/K)” value was 1-99 mM^1 s^−1.
`NCCc1nnc([C@@H]2CC[C@@H]3CN2C(=O)N3OS(=O)(=O)O)s1` [Compound 718, (2S,5R)-2-(5-(2-aminoethyl)-1,3,4-thiadiazol-2-yl)-7-oxo-1,6-diazabicyclo[3.2.1]octan-6-yl hydrogen sulfate] was tested, and the “binding affinity (kinact/K)” value was 1-99 mM^1 s^−1.
`O=C1N2C[C@@H](CC[C@H]2c2nnc(C3CCNCC3)s2)N1OS(=O)(=O)O` [Compound 719, (2S,5R)-7-oxo-2-(5-(piperidin-4-yl)-1,3,4-thiadiazol-2-yl)-1,6-diazabicyclo[3.2.1]octan-6-yl hydrogen sulfate] was tested, and the “binding affinity (kinact/K)” value was 1-99 mM^1 s^−1.
`NCCCc1nnc([C@@H]2CC[C@@H]3CN2C(=O)N3OS(=O)(=O)O)o1` [Compound 720, (2S,5R)-2-(5-(3-aminopropyl)-1,3,4-oxadiazol-2-yl)-7-oxo-1,6-diazabicyclo[3.2.1]octan-6-yl hydrogen sulfate] was tested, and the “binding affinity (kinact/K)” value was 100-999 mM^1 s^−1.
For `CNCCc1nnc([C@@H]2CC[C@@H]3CN2C(=O)N3OS(=O)(=O)O)o1` [Compound 722, (2S,5R)-2-(5-(2-(methylamino)ethyl)-1,3,4-oxadiazol-2-yl)-7-oxo-1,6-diazabicyclo[3.2.1]octan-6-yl hydrogen sulfate], the “binding affinity (kinact/K)” value was 1-99 mM^1 s^−1.
`NC1(Cc2nnc([C@@H]3CC[C@@H]4CN3C(=O)N4OS(=O)(=O)O)o2)CC1` [Compound 724, (2S,5R)-2-(5-((1-aminocyclopropyl)methyl)-1,3,4-oxadiazol-2-yl)-7-oxo-1,6-diazabicyclo[3.2.1]octan-6-yl hydrogen sulfate] was tested, and the “binding affinity (kinact/K)” value was 1-99 mM^1 s^−1.
`O=C1N2C[C@@H](CC[C@H]2c2nnc(CC3CNC3)o2)N1OS(=O)(=O)O` [Compound 725, (2S,5R)-2-(5-(azetidin-3-ylmethyl)-1,3,4-oxadiazol-2-yl)-7-oxo-1,6-diazabicyclo[3.2.1]octan-6-yl hydrogen sulfate] was tested, and the “binding affinity (kinact/K)” value was 1-99 mM^1 s^−1.
With `O=C1N2C[C@@H](CC[C@H]2c2nnc(CNC3CNC3)o2)N1OS(=O)(=O)O` [Compound 726, (2S,5R)-2-(5-((azetidin-3-ylamino)methyl)-1,3,4-oxadiazol-2-yl)-7-oxo-1,6-diazabicyclo[3.2.1]octan-6-yl hydrogen sulfate] the “binding affinity (kinact/K)” value was 1-99 mM^1 s^−1.
`N[C@@H]1CC[C@H](c2nnc([C@@H]3CC[C@@H]4CN3C(=O)N4OS(=O)(=O)O)o2)C1` [Compound 729, (2S,5R)-2-(5-((1S,3R)-3-aminocyclopentyl)-1,3,4-oxadiazol-2-yl)-7-oxo-1,6-diazabicyclo[3.2.1]octan-6-yl hydrogen sulfate] was tested, and the “binding affinity (kinact/K)” value was 1-99 mM^1 s^−1.
For `NCC(O)Cc1nnc([C@@H]2CC[C@@H]3CN2C(=O)N3OS(=O)(=O)O)o1` (stereo partly drawn) [Compound 733, (2S,5R)-2-(5-(3-amino-2-hydroxypropyl)-1,3,4-oxadiazol-2-yl)-7-oxo-1,6-diazabicyclo[3.2.1]octan-6-yl hydrogen sulfate], the “binding affinity (kinact/K)” value was 1-99 mM^1 s^−1.
`NCCCCc1nnc([C@@H]2CC[C@@H]3CN2C(=O)N3OS(=O)(=O)O)o1` [Compound 735, (2S,5R)-2-(5-(4-aminobutyl)-1,3,4-oxadiazol-2-yl)-7-oxo-1,6-diazabicyclo[3.2.1]octan-6-yl hydrogen sulfate] was tested, and the “binding affinity (kinact/K)” value was 1-99 mM^1 s^−1.
`O=C1N2C[C@@H](CC[C@H]2c2nnc(CCNCCO)o2)N1OS(=O)(=O)O` [Compound 736, (2S,5R)-2-(5-(2-((2-hydroxyethyl)amino)ethyl)-1,3,4-oxadiazol-2-yl)-7-oxo-1,6-diazabicyclo[3.2.1]octan-6-yl hydrogen sulfate] was tested, and the “binding affinity (kinact/K)” value was 1-99 mM^1 s^−1.
For `CC(C)(N)Cc1nnc([C@@H]2CC[C@@H]3CN2C(=O)N3OS(=O)(=O)O)o1` [Compound 737, (2S,5R)-2-(5-(2-amino-2-methylpropyl)-1,3,4-oxadiazol-2-yl)-7-oxo-1,6-diazabicyclo[3.2.1]octan-6-yl hydrogen sulfate], the “binding affinity (kinact/K)” value was 1-99 mM^1 s^−1.
In the case of `O=C1N2C[C@@H](CC[C@H]2c2nnc([C@H]3[C@@H]4CNC[C@@H]43)o2)N1OS(=O)(=O)O` [Compound 740, (2S,5R)-2-(5-(3-azabicyclo[3.1.0]hexan-6-yl)-1,3,4-oxadiazol-2-yl)-7-oxo-1,6-diazabicyclo[3.2.1]octan-6-yl hydrogen sulfate], the “binding affinity (kinact/K)” value was 100-999 mM^1 s^−1.
`O=C1N2C[C@@H](CC[C@H]2c2nnc(CCCC3CNC3)o2)N1OS(=O)(=O)O` [Compound 743, (2S,5R)-2-(5-(3-(azetidin-3-yl)propyl)-1,3,4-oxadiazol-2-yl)-7-oxo-1,6-diazabicyclo[3.2.1]octan-6-yl hydrogen sulfate] was tested, and the “binding affinity (kinact/K)” value was 100-999 mM^1 s^−1.
`O=C1N2C[C@@H](CC[C@H]2c2nnc(COC3CNC3)o2)N1OS(=O)(=O)O` [Compound 744, (2S,5R)-2-(5-((azetidin-3-yloxy)methyl)-1,3,4-oxadiazol-2-yl)-7-oxo-1,6-diazabicyclo[3.2.1]octan-6-yl hydrogen sulfate] was tested, and the “binding affinity (kinact/K)” value was 1-99 mM^1 s^−1.
With `O=C1N2C[C@@H](CC[C@H]2c2nnc(CCNC3CNC3)o2)N1OS(=O)(=O)O` [Compound 745, (2S,5R)-2-(5-(2-(azetidin-3-ylamino)ethyl)-1,3,4-oxadiazol-2-yl)-7-oxo-1,6-diazabicyclo[3.2.1]octan-6-yl hydrogen sulfate] the “binding affinity (kinact/K)” value was 100-999 mM^1 s^−1.
For `N=C(N)N1CC(NCc2nnc([C@@H]3CC[C@@H]4CN3C(=O)N4OS(=O)(=O)O)o2)C1` [Compound 746, (2S,5R)-2-(5-(((1-carbamimidoylazetidin-3-yl)amino)methyl)-1,3,4-oxadiazol-2-yl)-7-oxo-1,6-diazabicyclo[3.2.1]octan-6-yl hydrogen sulfate], the “binding affinity (kinact/K)” value was 100-999 mM^1 s^−1.
In the case of `O=C1N2C[C@@H](CC[C@H]2c2nnc(C3CC4(CNC4)C3)o2)N1OS(=O)(=O)O` [Compound 750, (2S,5R)-2-(5-(2-azaspiro[3.3]heptan-6-yl)-1,3,4-oxadiazol-2-yl)-7-oxo-1,6-diazabicyclo[3.2.1]octan-6-yl hydrogen sulfate], the “binding affinity (kinact/K)” value was 1-99 mM^1 s^−1.
`O=C1N2C[C@@H](CC[C@H]2c2nnc([C@H]3CCNC3)o2)N1OS(=O)(=O)O` [Compound 758, (2S,5R)-7-oxo-2-(5-((S)-pyrrolidin-3-yl)-1,3,4-oxadiazol-2-yl)-1,6-diazabicyclo[3.2.1]octan-6-yl hydrogen sulfate] was tested, and the “binding affinity (kinact/K)” value was 1-99 mM^1 s^−1.
In the case of `O=C1N2C[C@@H](CC[C@H]2c2nnc([C@@H]3CCNC3)o2)N1OS(=O)(=O)O` [Compound 759, (2S,5R)-7-oxo-2-(5((R)-pyrrolidin-3-yl)-1,3,4-oxadiazol-2-yl)-1,6-diazabicyclo[3.2.1]octan-6-yl hydrogen sulfate], the “binding affinity (kinact/K)” value was 1-99 mM^1 s^−1.
With `N[C@@H]1CN[C@H](c2nnc([C@@H]3CC[C@@H]4CN3C(=O)N4OS(=O)(=O)O)o2)C1` [Compound 760, (2S,5R)-2-(5-((2S,4S)-4-aminopyrrolidin-2-yl)-1,3,4-oxadiazol-2-yl)-7-oxo-1,6-diazabicyclo[3.2.1]octan-6-yl hydrogen sulfate] the “binding affinity (kinact/K)” value was 1-99 mM^1 s^−1.
`N[C@H]1CN[C@@H](c2nnc([C@@H]3CC[C@@H]4CN3C(=O)N4OS(=O)(=O)O)o2)C1` [Compound 761, (2S,5R)-2-(5-((2R,4R)-4-aminopyrrolidin-2-yl)-1,3,4-oxadiazol-2-yl)-7-oxo-1,6-diazabicyclo[3.2.1]octan-6-yl hydrogen sulfate] was tested, and the “binding affinity (kinact/K)” value was 1-99 mM^1 s^−1.
For `N[C@H]1CN[C@H](c2nnc([C@@H]3CC[C@@H]4CN3C(=O)N4OS(=O)(=O)O)o2)C1` [Compound 762, (2S,5R)-2-(5-((2S,4R)-4-aminopyrrolidin-2-yl)-1,3,4-oxadiazol-2-yl)-7-oxo-1,6-diazabicyclo[3.2.1]octan-6-yl hydrogen sulfate], the “binding affinity (kinact/K)” value was 1-99 mM^1 s^−1.
`N[C@@H]1CN[C@@H](c2nnc([C@@H]3CC[C@@H]4CN3C(=O)N4OS(=O)(=O)O)o2)C1` [Compound 763, (2S,5R)-2-(5-((2R,4S)-4-aminopyrrolidin-2-yl)-1,3,4-oxadiazol-2-yl)-7-oxo-1,6-diazabicyclo[3.2.1]octan-6-yl hydrogen sulfate] was tested, and the “binding affinity (kinact/K)” value was 1-99 mM^1 s^−1.
